The campaign covered roughly 94,000 compounds. About 4,000 (4.3%) were called active. The inconclusive results got no clear call from the source; some entries with a clear call stand among them for comparison. Calls follow the shape of the dose curve; as a rule, active = well fitted inhibition curve with a large enough effect; inconclusive = small, poorly fitted or top-dose-only effect; inactive = no such curve, though single readings can be large or run the other way. Potencies beside an inconclusive call are fits to weak or partial responses and may not hold up.
experiment: Cytotoxic Profiling in NIH 3T3 Cell Line of Diverse Libraries Using Quantitative High-Throughput Screening; settings: NIH 3T3 viability, CellTiter-Glo ATP luminescence, 48-72 h; activity change, negative = cytotoxicity: at 96.7 µM (top of the series); series mostly up to 96.7 µM; also: nearly all actives have a fitted effect of over 55% in size
Method in brief: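 Cytotoxicity is measured as loss of cellular ATP: NIH 3T3 cells (400/well) are exposed to compound for 48 or 72 hr at 37 °C, then CellTiter-Glo luminescence is imaged after 10 min at room temperature.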
% is scaled to controls: 0 for no effect and ±100 for the full control effect; potency is read from the fitted curve at half-maximal effect; tags tell the direction and shape of the fitted curve.

Row | SMILES | Potency | activity change, negative = cytotoxicity | outcome
1 | O=C(Cc1ccsc1)Nc1ccc2c(N3CCCC3)ncnc2c1 | inconclusive: 44.7 µM [inhibitor, partial curve, poor fit] |  | 
2 | CCCN1CCC2(Cc3ccccc3CN(C(C)=O)C2)C1 (centres undefined) |  | inactive: 0.354% | 
3 | COCCn1c(=O)c(C(=O)NCCCc2ccccc2)nc2cccnc21 |  | inactive: -28.8% | 
4 | O=C1Nc2ccc(-c3ccccc3)cc2C(=O)N2C[C@H](O)C[C@@H]12 | inconclusive: 112 µM [inhibitor, partial curve, poor fit] |  | 
5 | CC1=C(C(=O)OC(C)C)C(c2ccccc2F)N2C(CC(=O)N3CCOCC3)=CSC2=N1 (centres undefined) |  | inactive: -19.4% | 
6 | Cc1cc(OC2CN(Cc3ccc(C(F)(F)F)cc3)C2)ccc1F | inconclusive: 56.2 µM [inhibitor, partial curve, poor fit] |  | 
7 | CC(C)NC(=O)c1nc2sccn2c1-c1ccccc1 |  | inactive: -20.6% [at 138 µM] | 
8 | O=C(NCc1ccccc1)C1=NO[C@@H]2CN(Cc3ccc(O)c(Cl)c3)C[C@H]12 | inconclusive: 89.1 µM [inhibitor, partial curve, poor fit] |  | 
9 | O=C(CCC1CCCC1)N1CCC2(CC1)CC(N(C(=O)c1ccccc1)C1CC1)CCO2 (centres undefined) | inconclusive: 31.6 µM [inhibitor, partial curve, poor fit] |  | 
10 | CN1CC(=O)N(c2ccc(Cl)cc2)Cc2c(NC3CCNCC3)ncnc21 |  | inactive: -9.39% | 
11 | COC(=O)CNC(=O)C1CCCN(Cc2cccc(-c3ccccc3OC)c2)C1 (centres undefined) | inconclusive: 44.7 µM [inhibitor, partial curve, poor fit] |  | 
12 | Cc1ncsc1CN1CCC2(CC1)CN(Cc1ccccc1)CC2CO (centres undefined) | inconclusive: 79.4 µM [inhibitor, partial curve, poor fit] |  | 
13 | Cc1noc2c(-c3cccnc3NCCN3CCOCC3)cc(-c3ccccc3)nc12 | inconclusive: 89.1 µM [inhibitor, partial curve] |  | 
14 | COc1ncccc1N1CC2(COCC(=O)N(Cc3cccc(OC(F)(F)F)c3)C2)C1 |  | inactive: -20.9% [at 138 µM] | 
15 | O=C(c1ccccc1Cl)N1CCN(c2ccc3nnc(-c4ccccc4)n3n2)CC1 | inconclusive: 79.4 µM [inhibitor, partial curve, poor fit] |  | 
16 | COc1ccccc1C1CNC(=O)c2nc(CCN3CCC(C)CC3)[nH]c2C1 (centres undefined) | inconclusive: 89.1 µM [inhibitor, partial curve, poor fit] |  | 
17 | O=[S+]([O-])(c1ccncc1)c1nnn2c1nc(N1CCOCC1)c1ccccc12 | inconclusive: 56.2 µM [inhibitor, single point] |  | 
18 | CC(=O)N1CCCN(C(=O)c2cc(-c3cc(Cl)cc(Cl)c3)nc3c2cnn3C)CC1 | inconclusive: 50.1 µM [inhibitor, partial curve, poor fit] |  | 
19 | Cc1noc(C)c1-c1cc(-c2ccc([S+](C)(=O)[O-])cc2)cn2cncc12 | inconclusive: 25.1 µM [inhibitor, partial curve, poor fit] |  | 
20 | COc1cccc(C(=O)N2CCC(N3C[C@H](O)C[C@H]3C(=O)Nc3cccc(C)c3)CC2)c1 |  | inactive: 2.42% | 

Row | SMILES | Potency | activity change, negative = cytotoxicity | outcome
21 | CCCCCC(=O)N1C[C@@H](C(=O)OCC)[C@@H]2Oc3c(C)cccc3[C@@H]21 | inconclusive: 50.1 µM [inhibitor, partial curve, poor fit] |  | 
22 | COc1ccc(Nc2ccnc(N3CCC(NC(=O)NC4CCCC4)CC3)n2)cc1 | inconclusive: 50.1 µM [inhibitor, partial curve, poor fit] |  | 
23 | CC1=C[C@@H](CN2C(=O)c3ccccc3C2=O)[C@H](C(C)C)C[C@H]1Cc1nc2ccccc2[nH]1 | active: 25.1 µM |  | 
24 | Cc1ccc(C(=O)N2CCC[C@H]2c2nc(-c3ccccc3)no2)c(C)c1 | inconclusive: 44.7 µM [inhibitor, partial curve, poor fit] |  | 
25 | CCN1C[C@H]2CN(C)c3ccccc3[C@@H]2N(C(=O)OCC(C)C)CCC1=O | inconclusive: 28.2 µM [inhibitor, partial curve, poor fit] |  | 
26 | CCOC(=O)[C@H]1C[C@]2(CCCCN(CCOC)C2=O)N(C(=O)Cc2ccc(F)cc2)[C@H]1c1ccco1 | inconclusive: 50.1 µM [inhibitor, single point] |  | 
27 | CCNC(=O)N[C@H]1CO[C@H]2[C@@H]1OC[C@H]2OC(=O)Nc1ccc(C(C)=O)cc1 | inconclusive: 79.4 µM [inhibitor, partial curve, poor fit] |  | 
28 | COc1cccc(C(=O)NC2CCN(c3ccnc4ccnn34)CC2)c1 | inconclusive: 50.1 µM [inhibitor, partial curve, poor fit] |  | 
29 | COC(=O)c1cn([C@H]2CO[C@H]3[C@@H]2OC[C@@H]3NC(=O)c2ccc(C)cc2)nn1 |  |  | inactive [at 174 µM]
30 | CNC(=O)[C@@H]1CN(C(=O)NCc2ccco2)C[C@H]1c1nc(C)no1 |  | inactive: -2.49% | 
31 | COc1ccc(C(=O)Nc2ccc([C@@H](O)[C@H]3COCC(=O)N3Cc3ccccc3F)cc2)cc1 | inconclusive: 56.2 µM [inhibitor, partial curve, poor fit] |  | 
32 | CCn1ccc(C(=O)N2CC(Oc3ccc(-c4nc(C)no4)cc3)C2)n1 |  | inactive: -24.9% | 
33 | O=C(c1ccc(F)cc1)N1CCC(C(=O)N2CCC(N3CCCC3=O)CC2)CC1 |  |  | inactive
34 | CC(=O)NC1(C)CCN(Cc2ccc(Nc3ccccc3)cc2)C1 (centres undefined) | inconclusive: 89.1 µM [inhibitor, partial curve] |  | 
35 | O=C(N[C@@H]1CCC[C@@H]1C(=O)N1CCN(c2ccccn2)CC1)c1ccncc1 |  | inactive: -5.17% | 
36 | O=C(c1ccc(Oc2ccccc2)cc1)N1CCNc2cnc(Nc3cccnc3)nc2C1 | inconclusive: 44.7 µM [inhibitor, partial curve, poor fit] |  | 
37 | CCNC(=O)OC1CCN(C(=O)Nc2ccccc2)CC(=O)N(C)c2ccccc21 (centres undefined) | inconclusive: 44.7 µM [inhibitor, partial curve, poor fit] |  | 
38 | CC(C)NC(=O)C1CCN(C(=O)c2ccc(-c3cncnc3)cc2)CC1 | inconclusive: 50.1 µM [inhibitor, full curve, poor fit] |  | 
39 | COCCN1CCCCCC(O)c2cc(C(=O)N(C)Cc3ccc(N4CCCCC4)cc3)ccc21 (centres undefined) | active: 39.8 µM |  | 

— PubChem BioAssay AID1345082 (National Center for Advancing Translational Sciences (NCATS), 2018)
